Assay results: PubChem BioAssay (NCI)
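Assay format: 96-well plates, 48-hour exposure. GI50: concentration for 50% inhibition of growth. TGI denotes the concentration required for complete inhibition of growth.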

Test system: NCI-H322M lung
Assay: growth of human tumour cells (NCI), 48 h

Row | SMILES | GI50 [µM] | TGI [µM]
1 | C=C1CCC2C3(C)COC(c4c(F)cccc4F)OC3CCC2(C)C1C/C=C1/C(=O)OCC1O (stereo unspecified) | 10.8 | 22.7
2 | O=C(c1ccc(Cl)cc1)C1[C@H](c2ccccc2Br)[C@@H](c2ccccc2)NC12C(=O)Nc1ccccc12 (stereo partly specified) | 9.53 | > 56
3 | COc1ccc(CCN2C(=O)/C(=C/c3csc(C#N)n3)SC2=S)cc1 | 15.2 | 29.9
